Test results taken from US12043670B2, “Anti-BCMA antibody-drug conjugates and methods of use” (Eisai R&D Management Co., Ltd., priority 2020, dated 2024).

What was measured:
[1] = HPLC analysis - free drug; assay type: physicochemical; conditions: residual unconjugated linker-payload in ADC batch
Protocol: Conjugate was precipitated with 10 volumes of acetonitrile on ice for 2 hours and spun down. Supernatants containing residual unconjugated payload were then injected onto an Agilent Poroshell 120 SB-C18120A column (4.6×100 mm, 2.7 μm) and eluted with a gradient of 45% B to 70% B over 10 min at RT. Mobile phase A was 100% water, mobile phase B was 100% acetonitrile, and the flow rate was 0.6 mL/min with detection at 252 nm. The amount of residual free drug was quantified via UV detection with comparison to the external standard curve of unconjugated linker-payload.

[2] = SEC analysis - aggregation / percent monomer; assay type: physicochemical; conditions: absorbance at 280 nm, ADC batch
Protocol: The peak area absorbance at 280 nm was determined for the high molecular weight and monomeric conjugate components by area under the curve integration.

[3] = Freeze-thaw testing (DAR, aggregation, concentration); assay type: physicochemical; conditions: histidine/pH 6.0 buffer
Protocol: Exemplary ADC samples (80 μL each, histidine/pH 6.0 buffer) were frozen at −80° C. for 2 hours. The samples were then placed at 22° C. for 30 min to remove visible ice. This completed one cycle. Sampling was performed at the starting point and after 1, 4, and 10 freeze-thaw cycles. 15 μL of each ADC was sampled each time, 7.5 μL of which was used to analyze DAR, aggregation, and concentration. Before analysis, all samples were stored at −80° C.

[4] = Accelerated stability testing at 37° C. (aggregation, concentration, DAR); assay type: physicochemical; conditions: 20 mM Histidine/HOAc pH 6.0
Protocol: (§1) Exemplary anti-BCMA ADCs (˜1 mg each in Eppendorf tubes, ˜4-5 mg/mL) were centrifuged and measured by UV absorption (NanoDrop) at 280 nm to determine protein concentrations. Samples were then incubated in a 37° C. water bath and sampled at four time points, 0 (freshly prepared), 1 day, 2 days, and 4 days. Samples taken at different time points were stored at −80° C. until the last sampling was completed. After thawing at 22° C., samples were analyzed with SEC and hydrophobic interaction chromatography (HIC) for quantification of antibody aggregation and DAR.

[5] = HIC analysis - DAR of the ADC batch; assay type: physicochemical; conditions: for Drug-to-antibody ratio (DAR): HIC; for HIC DAR: batch used in cell viability analysis (Table 26)
Protocol: as §1

[6] = tested on: MOLP8 multiple myeloma xenograft; assay: MOLP8 xenograft model, anti-BCMA ADCs (Study 1); assay type: in vivo, mouse; conditions: MOLP8 xenograft Study 1, conditions as OPM2 model (single intravenous dose 20 mg/kg)
Protocol: Methods: Anti-tumor activity of exemplary anti-BCMA ADCs was assessed in an OPM2 multiple myeloma xenograft model. OPM2 cells were cultured and expanded for inoculation according to ATCC recommendations. […] Female CB17-Scid mice were inoculated subcutaneously with 100 μL of cell suspension on their right flanks and monitored for tumor growth. When the mean tumor volume reached ˜150 mm^3, mice were randomized into treatment groups and given a single intravenous dose (via tail vein) of 2.0 mg/mL dosing solution at 10 mL/kg for a total dose of 20 mg/kg. Mice were weighed and their tumors were measured two to three times/week. Animals with tumors exceeding 2000 mm^3 or 20 mm in any dimension were taken off study and appropriately euthanized according to IACUC protocol. Upon euthanasia, tumor samples and serum were collected and banked for subsequent analyses.
Methods: To further evaluate the anti-tumor activity of exemplary anti-BCMA ADCs in vivo, a screen of the same ADCs was performed in a second multiple myeloma xenograft model, MOLP8. […] All experimental conditions in this study were identical to those used for the OPM2 model with the exception of the model itself and the number of days from tumor inoculation to dose administration (day of dosing is indicated by an arrow in FIG. 15).

[7] = tested on: OPM2 multiple myeloma xenograft; assay: OPM2 xenograft model, anti-BCMA ADCs (Studies 1 and 2); assay type: in vivo, mouse; conditions: single intravenous dose 20 mg/kg; for Tumor growth inhibition (% ± SEM, day 28): OPM2 xenograft Study 2, CB17-Scid mice
Protocol: Methods: Anti-tumor activity of exemplary anti-BCMA ADCs was assessed in an OPM2 multiple myeloma xenograft model. OPM2 cells were cultured and expanded for inoculation according to ATCC recommendations. Cells were pelleted and resuspended in a solution of serum-free RPMI-1640 medium (50% v/v) and Matrigel (50% v/v) at a density of 5.0×10^7 cells/mL. Female CB17-Scid mice were inoculated subcutaneously with 100 μL of cell suspension on their right flanks and monitored for tumor growth. When the mean tumor volume reached ˜150 mm^3, mice were randomized into treatment groups and given a single intravenous dose (via tail vein) of 2.0 mg/mL dosing solution at 10 mL/kg for a total dose of 20 mg/kg. Mice were weighed and their tumors were measured two to three times/week. Animals with tumors exceeding 2000 mm^3 or 20 mm in any dimension were taken off study and appropriately euthanized according to IACUC protocol. Upon euthanasia, tumor samples and serum were collected and banked for subsequent analyses.
Conjugates of AB213, AB214, and AB215 were assessed in a first experiment (FIG. 11; Table 30); conjugates of AB212, AB216, AB217, and AB218 were assessed in a second experiment (FIG. 12; Table 31).
In the second experiment, to evaluate the antibody-specific activity of ADCs incorporating exemplary anti-BCMA antibodies, a ‘non-targeting’ ADC was generated by conjugating the ADL1-D2 linker-payload to the anti-HER2 antibody trastuzumab (AB185) at an average DAR of ˜4.0.

MOLP8 cells = assay: CellTiter-Glo cell viability, MOLP8; assay type: cell-based, human
MM1.S cells = assay: CellTiter-Glo cell viability, MM1.S; assay type: cell-based, human

Molecule | Free Drug (%) [1] [%] | Percent Monomer [2] [%] | Aggregation (%) ([3]; After 6 freeze-thaw) | Concentration ([3]; After 6 freeze-thaw) [µg/mL] | HIC DAR ([3]; After 6 freeze-thaw) | Aggregation (%) ([4]; 0 d at 37° C.) | Concentration ([4]; 0 d at 37° C.) [µg/mL] | DAR (HIC) ([4]; 0 d at 37° C.) | Aggregation (%) ([4]; 1 d at 37° C.) | Concentration ([4]; 1 d at 37° C.) [µg/mL] | DAR (HIC) ([4]; 1 d at 37° C.) | Aggregation (%) ([4]; 2 d at 37° C.) | Concentration ([4]; 2 d at 37° C.) [µg/mL] | DAR (HIC) ([4]; 2 d at 37° C.) | Aggregation (%) ([4]; 4 d at 37° C.) | Concentration ([4]; 4 d at 37° C.) [µg/mL] | DAR (HIC) ([4]; 4 d at 37° C.) | Drug-to-antibody ratio (DAR) ([5]; batch used in MOLP8 Study 1) | HIC DAR [5] | Tumor growth inhibition (% ± SEM, day 21) [6] [%] | other results
AB217-ADL1-D2-02 (conjugate) heavy: QVQLVQSGAEVKKPGSSVKVSCKASGGTFTNYWIHWVRQAPGQGLEWMGATYRSHSDTYYAQKYKSRVTITADKSTSTAYMELSSLRSEDTAVYYCARGAVYHGYDVIDNWGQGTLVTVSS[omitted - human IgG1 constant region] light: DIQMTQSPSSLSASVGDRVTITCRASQSISSYINWYQQKPGKAPKLLIYATSNLQSGVPSRFSGSGSGTDFTLTISSLQPEDFATYYCQQYRRIPWTFGQGTKLEIKRTVAAPSVFIFPPSDEQLKSGTASVVCLLNNFYPREAKVQWKVDNALQSGNSQESVTEQDSKDSTYSLSSTLTLSKADYEKHKVYACEVTHQGLSSPVTKSFNRGEC | 0.5 | 97.88 | 1.91 | 4240 | 3.78 | 1.91 | 4240 | 3.78 | 2.20 | 4180 | 3.77 | 2.22 | 4210 | 3.71 | 2.46 | 4470 | 3.75 | 3.7 | 3.7 | 62.95 ± 8.99 | Aggregation (%) ([3]; Before freeze-thaw): 2.12%; Concentration ([3]; Before freeze-thaw): 4250 µg/mL; HIC DAR ([3]; Before freeze-thaw): 3.70; Drug-to-antibody ratio (DAR) ([5]; batch used in OPM2 Study 2): 3.7; Tumor growth inhibition (% ± SEM, day 28) [7]: 61.69 ± 10.68%
AB218-ADL1-D2-02 (conjugate) heavy: QVQLVQSGAEVKKPGSSVKVSCKASGGTFSNYWIHWVRQAPGQGLEWMGATYRSQSTTYYNQKFKSRVTITADKSTSTAYMELSSLRSEDTAVYYCARGAVYHGYDVIDNWGQGTLVTVSS[omitted - human IgG1 constant region] light: DIQMTQSPSSLSASVGDRVTITCRASQSISSYLNWYQQKPGKAPKLLIYATSNLQIGVPSRFSGSGSGTDFTLTISSLQPEDFATYYCQQFRRLPWTFGQGTKLEIKRTVAAPSVFIFPPSDEQLKSGTASVVCLLNNFYPREAKVQWKVDNALQSGNSQESVTEQDSKDSTYSLSSTLTLSKADYEKHKVYACEVTHQGLSSPVTKSFNRGEC | 0.26 | 99.9 | 0.39 | 4860 | 3.75 | 0.39 | 4860 | 3.75 | 0.60 | 5260 | 3.71 | 0.95 | 5390 | 3.72 | 1.71 | 5090 | 3.71 | 3.77 | 3.77 | 26.94 ± 25.37 | Aggregation (%) ([3]; Before freeze-thaw): 0.10%; Concentration ([3]; Before freeze-thaw): 4680 µg/mL; HIC DAR ([3]; Before freeze-thaw): 3.77; Drug-to-antibody ratio (DAR) ([5]; batch used in OPM2 Study 2): 3.77; Tumor growth inhibition (% ± SEM, day 28) [7]: 83.00 ± 8.44%
AB214-ADL1-D2-02 (conjugate) heavy: QVQLVQSGAEVKKPGSSVKVSCKASGGTFSNYWIHWVRQAPGQGLEWMGATYRSQSDTYYNQKYKSRVTITADKSTSTAYMELSSLRSEDTAVYYCARGAVYHGYDVIDNWGQGTLVTVSS[omitted - human IgG1 constant region] light: DIQMTQSPSSLSASVGDRVTITCRASQSISSYLNWYQQKPGKAPKLLIYATSNLQIGVPSRFSGSGSGTDFTLTISSLQPEDFATYYCQQYRRIPWTFGQGTKLEIKRTVAAPSVFIFPPSDEQLKSGTASVVCLLNNFYPREAKVQWKVDNALQSGNSQESVTEQDSKDSTYSLSSTLTLSKADYEKHKVYACEVTHQGLSSPVTKSFNRGEC | 0.5 | 100 | – | – | – | 0.58 | 4580 | 4.30 | 0.87 | 4480 | 4.30 | 1.18 | 4530 | 4.26 | 1.01 | 4700 | 4.61 | 4.12 | 4.12 | 49.27 ± 20.79 | LD50 (nM) MOLP8.1 (MOLP8 cells): 78.966 nM; GI50 (MOLP8 cells; MOLP8 cells, 6 days, CellTiter-Glo, read-out: GI50 (nM) MOLP8.1): 5.02 nM; LD50 (nM) MM1S.1 (MM1.S cells): 373.387 nM; GI50 (MM1.S cells; MM1.S cells, 6 days, CellTiter-Glo, read-out: GI50 (nM) MM1S.1): 0.265 nM; Tumor growth inhibition (% ± SEM, day 30) ([7]; OPM2 Study 1, ADC, day 30): 82.91 ± 4.07%
